In all, about 310,000 compounds went through this assay and about 14,000 (4.5%) showed an effect of 50% or more. The effect is printed as a negative number. This is one part of the list.
Molecular target: human ether-à-go-go-related gene (hERG) potassium channel (human, UniProt Q12809)
Test: primary screen, population patch clamp on CHO cells stably expressing hERG
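Also: peak tail current of the secondary pulse compared with the same well before compound.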

human ether-à-go-go-related gene (hERG) potassium channel, sequence (Q12809 whole entry, looked up): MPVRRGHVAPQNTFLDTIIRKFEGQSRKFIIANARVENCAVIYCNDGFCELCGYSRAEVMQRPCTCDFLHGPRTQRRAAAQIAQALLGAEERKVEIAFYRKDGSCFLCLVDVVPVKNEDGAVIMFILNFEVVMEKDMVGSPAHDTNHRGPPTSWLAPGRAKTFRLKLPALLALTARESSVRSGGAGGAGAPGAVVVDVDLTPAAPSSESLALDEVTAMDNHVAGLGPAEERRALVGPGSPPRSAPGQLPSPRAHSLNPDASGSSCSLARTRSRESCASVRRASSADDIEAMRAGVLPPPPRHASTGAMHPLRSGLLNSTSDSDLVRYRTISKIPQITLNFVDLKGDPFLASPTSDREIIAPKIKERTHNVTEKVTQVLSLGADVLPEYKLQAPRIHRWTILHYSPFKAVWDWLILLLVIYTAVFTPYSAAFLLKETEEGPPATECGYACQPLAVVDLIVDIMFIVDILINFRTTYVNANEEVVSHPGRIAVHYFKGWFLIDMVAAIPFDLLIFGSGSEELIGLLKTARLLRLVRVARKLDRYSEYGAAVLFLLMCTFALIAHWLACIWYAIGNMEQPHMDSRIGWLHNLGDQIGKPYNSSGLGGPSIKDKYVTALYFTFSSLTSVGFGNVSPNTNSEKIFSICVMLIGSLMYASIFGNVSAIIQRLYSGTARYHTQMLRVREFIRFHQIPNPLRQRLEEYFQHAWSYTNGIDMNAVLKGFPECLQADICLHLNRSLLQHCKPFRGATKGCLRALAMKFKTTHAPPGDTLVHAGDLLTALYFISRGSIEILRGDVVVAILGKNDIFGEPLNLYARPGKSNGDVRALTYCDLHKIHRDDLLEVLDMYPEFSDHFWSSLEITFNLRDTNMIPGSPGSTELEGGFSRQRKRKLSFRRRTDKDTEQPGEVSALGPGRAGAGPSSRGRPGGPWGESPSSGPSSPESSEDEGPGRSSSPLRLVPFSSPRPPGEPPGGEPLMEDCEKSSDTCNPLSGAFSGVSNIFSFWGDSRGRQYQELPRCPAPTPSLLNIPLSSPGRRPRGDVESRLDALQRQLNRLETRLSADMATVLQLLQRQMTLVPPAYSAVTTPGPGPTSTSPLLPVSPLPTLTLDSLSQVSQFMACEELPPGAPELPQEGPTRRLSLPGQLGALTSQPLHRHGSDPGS

Row | Compound | hERG current change (%, negative = inhibition) at 10uM
1 | CCOc1ccc(C(=O)OCCCN(C)C)cc1 | -14.4%
2 | CC1(C)OC(=O)C(=NNc2ccc(O)cc2)C(=O)O1 | 15.1%
3 | O=S(=O)(c1ccc(NCC2CCCCC2)nc1)N1CCOCC1 | -16.6%
4 | Cc1ccc(NC(=O)CNC2CCCCC2)cc1Cl | 6.64%
5 | O=C(CCc1ccccc1)Nc1ccc(NC(=O)c2ccco2)nc1 | -2.8%
6 | Cc1ccc(NC2=C/C(=N\S(=O)(=O)c3cccs3)c3ccccc3C2=O)c(C)c1 | 4.7%
7 | O=C1CC(SC(=Nc2ccccc2)Nc2ccccc2)C(=O)N1c1cccc(Cl)c1 (stereo not shown) | -5.58%
8 | O=C(CNC(=S)N(Cc1ccccc1Cl)C1CCCC1)NCCN1CCOCC1 | -9.19%
9 | CC(C)OC(=O)CSc1nnc(-c2cnccn2)n1C | 7.97%
10 | CCOc1ccc2c(c1)c(N=NC(=N)N)c(O)n2C | -6.2%
11 | Cc1nc(NC(=O)COC(=O)CCc2nc3ccccc3s2)c(Cl)cc1Cl | 22.4%
12 | NS(=O)(=O)c1ccc(NC(=O)CSc2ncn[nH]2)cc1 | 10.7%
13 | O=C(NNc1ccc(Cl)cc1)C1CCC1 | 16.6%
14 | O=C(NCCCN1CCOCC1)c1cc2c(s1)CSC2 | 3.93%
15 | C#CCOC(=O)c1csc2nnsc12 | -6.28%
16 | CCOC(=O)N1CCN(c2c(NCCc3ccc(OCC)c(OCC)c3)c(=O)c2=O)CC1 | -4.22%
17 | CCn1c(SCC(=O)Nc2ccc(OC)c(OC)c2)nnc1-c1cccs1 | -14.1%
18 | CCc1ccc(NC(=O)C(C)Sc2ccc(S(=O)(=O)N3CCN(C)CC3)cn2)cc1 (stereo not shown) | -29.4%
19 | CC(=Nc1ccccc1)Nc1ccccc1 | -4.05%
20 | CCCC1=Nc2cc(C(=O)NCCCN3CCOCC3)ccc2Sc2ccccc21 | -9.32%
21 | CCOC(=O)c1c(C)[nH]c(C(=O)NNC(=O)c2ccc(C(C)(C)C)cc2)c1C | -2.61%
22 | Oc1ccc(Oc2ncc(Cl)cc2Cl)cc1 | -12.5%

Row | Compound | hERG current change (%, negative = inhibition) at 10uM
23 | N#CC1=C(N)N(c2ccccc2C#N)C2=C(C(=O)CCC2)C1c1ccsc1 (stereo not shown) | -19.5%
24 | COc1ccc2c(c1)SC1=NCCS(=O)(=O)N12 | 0.987%
25 | COc1cc(NC(=O)c2ccc(Cl)cc2Cl)ccc1-c1cc2ccccc2oc1=O | -5.94%
26 | COc1ccc(C(=O)N2CCOC2CNC(=O)C(=O)NCCc2ccc(OC)c(OC)c2)cc1 (stereo not shown) | -8.61%
27 | CCN(CC)CCNC(=O)NC1CCCCC1 | 20.3%
28 | Cc1cc(C)c(NC(=S)N(CCN(C)C)Cc2cccs2)c(C)c1 | -13.4%
29 | COc1ccc(OC)c(-n2nnnc2SCC(=O)Nc2ccc3c(c2)OCCO3)c1 | 13.2%
30 | CC(C)CCNC(=O)c1onc(CSc2ccc(F)c(F)c2)c1C(=O)NCCC(C)C | 5.79%
31 | COc1ccc(/C=N/NC(=O)c2ccc(Br)o2)cc1Cn1cc([N+](=O)[O-])cn1 | -39.1%
32 | CCCc1cc(=O)[nH]c(Nc2ccc(Cl)cc2)n1 | 6.28%
33 | CC(=O)Nc1cccc(C(=O)OCC(=O)c2ccc3c(c2)OCO3)c1 | 7.2%
34 | Nc1nc2ccc(C(=O)NC3CCCCC3)cc2s1 | 5.84%
35 | O=C(Nc1nnc(-c2ccc3c(c2)CCCC3)o1)c1c(F)cccc1F | 0.248%
36 | CCCNS(=O)(=O)c1ccc(CCC(=O)N2CCN(CC)CC2)cc1 | -1.72%
37 | CCOc1ccc(N(C)S(=O)(=O)c2ccc(C)c(C(=O)NCc3cccs3)c2)cc1 | -7.89%
38 | CCC(C(=O)Nc1ncc(C)s1)c1ccccc1 (stereo not shown) | 31.4%
39 | CCOC(=O)N1CCC(=NNC(=O)COc2cccc(C)c2)CC1 | 7.01%
40 | COc1ccc(CCNC(=O)c2cc3c(=O)n(C)c4ccccc4c3n2C)c(OC)c1 | 3.27%
41 | COc1ccc(C(=S)Nc2ccc(N(C)C)cc2)cc1 | 16.6%
42 | COc1ccc(C2=NS(=O)(=O)N(C)C(C(=O)NC3CCCCC3)=C2)cc1OC | -9.09%
43 | O=C(COc1ccc(Cl)cc1Cl)NC(=O)N1CCCCC1 | -24.1%
44 | Cc1ccccc1-n1nc2c(c1NC(=O)C(C)C)CS(=O)(=O)C2 | 25.5%

Row | Compound | hERG current change (%, negative = inhibition) at 10uM
45 | O=C(CCc1c[nH]c2ccccc12)Nc1ccc(S(=O)(=O)Nc2ncccn2)cc1 | 10.1%
46 | O=[N+]([O-])c1cc2c(c(CSc3ncccn3)c1)OCOC2 | 21.7%
47 | O=C(OCc1nc2ccccc2s1)c1cc2ccccc2oc1=O | 0.991%
48 | COCC(=O)Nc1c(C(=O)Nc2cccc(OC)c2)oc2ccccc12 | 13.9%
49 | CSc1ccc(CN(C)CC(=O)Nc2ccc(NC(C)=O)cc2)cc1 | -25.8%
50 | Cc1[nH]c(C)c(S(=O)(=O)N2CCc3ccccc32)c1C(=O)N1CCCCC1 | 14.6%
51 | CC(Oc1ccc(Br)cc1Cl)C(=O)Nc1ccncc1 (stereo not shown) | -29.7%
52 | COc1ccc(CC(=O)Nc2ccc(C#N)c(Cl)c2)cc1S(=O)(=O)N1CCOCC1 | -68.1%
53 | CCCn1c(N)c(C(=O)CN(C)CC(=O)Nc2ccccc2CC)c(=O)[nH]c1=O | -42%
54 | COCCn1c(-c2ccc(F)cc2)nc2oc3cc(OC)ccc3c(=O)c2c1=O | -19.6%
55 | O=C1C(C=NC2CC2)=C(O)c2ccccc21 | 6.75%
56 | Cc1ccc(-n2c(SCC(N)=O)nnc2-c2ccc(S(=O)(=O)N3CCCCC3)cc2)c(C)c1 | -52.7%
57 | CCOC(=O)CCCNC(=O)CN1C(=O)NC(c2ccccc2)(c2ccccc2)C1=O | -17.9%
58 | Cc1nnc(NC(=O)c2ccc(-c3ccc([N+](=O)[O-])cc3)o2)s1 | -11.7%
59 | CCOP(=O)(OCC)/C(C#N)=C(\O)c1ccc(OC)cc1 | -4.25%
60 | Cc1cc(C)n(-c2c(F)c(F)c(CN3CCCCC3)c(F)c2F)n1 | 3%
61 | CCn1c(-c2ccc(Cl)cc2)n[nH]c1=S | 13.2%
62 | CSCCC(NC(=O)c1cc(C(C)(C)C)oc1C)C(=O)O (stereo not shown) | 14%
63 | O=S(=O)(c1cccc(COc2c(Cl)cccc2Cl)c1)N1CCOCC1 | -12%
64 | COc1ccccc1C(=O)Nc1ccnn1C1CCN(C2CCSCC2)CC1 | -70.9%
65 | O=[N+]([O-])c1cc(-c2csc(NC(CO)c3nc4ccccc4n3CCOCCO)n2)ccc1Cl (stereo not shown) | -8.63%
66 | CCCC[C@H]1COCCS(=O)(=O)N1Cc1ccc(C)cc1 | 9.87%

Row | Compound | hERG current change (%, negative = inhibition) at 10uM
67 | COc1cc(/C=N/N2CCN(c3ccc(Cl)cc3)CC2)cc(OC)c1OC(C)=O | 9.63%
68 | CCCOC(=O)CSC1=C(C#N)C(c2ccc3c(c2)OCO3)CC(=O)N1 (stereo not shown) | -1.72%
69 | COc1ccc(CNC(=O)C2=CC(c3ccc(C)cc3)=NS(=O)(=O)N2C)cc1 | -9.69%
70 | COc1ccccc1OP(=O)(Nc1ccc(Br)cc1)Oc1ccccc1OC | 16.3%
71 | CC1CC(C)CN(S(=O)(=O)c2ccc(C(=O)NCc3ccco3)cc2)C1 (stereo not shown) | -13.3%
72 | COc1cc(CN(C2CCCCC2)S(=O)(=O)c2ccc(S(=O)(=O)N(C)C3CCCCC3)cc2)cc(OC)c1OC | -3.47%
73 | O=C(NCc1ccccn1)C1CCCN(S(=O)(=O)c2ccc(Br)cc2)C1 (stereo not shown) | -26.6%
74 | C/C(CC(C)(C)C1CCCCC1)=N\NC(N)=S | 14.6%
75 | C=C[C@@H]1c2c(F)cccc2N(S(=O)(=O)c2ccc(C)cc2)[C@H](c2ccc(C(=O)OC)cc2)C1(C#N)C#N | 24.9%
76 | Cc1cc(C)cc(NC(=O)C2CCC(CNC(=O)[C@@H]3Cc4ccccc4CN3)CC2)c1 (stereo partly shown) | 0.322%
77 | O=C(Cc1ccccc1)Nc1ccc(F)cc1 | 22.3%
78 | COc1ccc(CCN(C)C(=O)c2cc(S(=O)(=O)NCc3ccccc3)ccc2C)cc1OC | -31.1%
79 | COc1ccc(C(Nc2ccccc2)P(=O)(Oc2ccccc2)Oc2ccccc2)cc1 (stereo not shown) | 15.2%
80 | CN(C)C(=O)c1ccc(OCC(F)(F)F)nc1 | 12.2%
81 | O=C(c1ccc(F)cc1)N1CCC(C(=O)N2CCN(S(=O)(=O)c3cccc(Cl)c3)CC2)CC1 | -44.6%
82 | Nc1nc2ccccc2n1CCOc1ccc(Cl)cc1 | -51.1%
83 | COc1cccc(OCC(=O)NN=C2c3ccccc3-c3ccccc32)c1 | -5.77%
84 | O=c1cc(CSc2ccc(Cl)cc2)nc(-c2ccccc2)[nH]1 | -59.7%
85 | CC(CCN1C(Nc2ccccc2)=NC[C@@H]1Cc1ccccc1)c1ccccc1 (stereo partly shown) | -74.8%
86 | CCOC(=O)/C(=N\Nc1ncnc2ccccc12)c1ccc(C)cc1 | -39.1%
87 | Cc1cc(C)cc(-n2c(SCC(=O)NCc3ccc4c(c3)OCO4)nc3ccccc3c2=O)c1 | 15.9%
88 | COc1ccc(NS(=O)(=O)c2ccc(C(=O)N3CCN(Cc4ccccc4)CC3)cc2)cc1 | -17.1%

— article PMC4336329 (PLoS ONE, 2015)
